# Source: the supplement of paper PMC8728848
# This is one part of the list.
# What was measured:
# Assay in all cases: glycan array binding signal (z-score within array); higher = stronger binding
# Conditions in all cases: glycan notation: IUPAC condensed, linker removed
# [1] = target: Neu5Ac(a2-6)GlcNAc(b1-4)GlcNAc
# Outline: (§1)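 Columns mapping to the same glycan were averaged after glycan names were converted to IUPAC-condensed notation. The data come from 3228 arrays in the Consortium for Functional Glycomics database, limited to those with an available protein sequence. Binding is reported as a within-array Z-score averaged across arrays of one protein sequence and across linkers.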
# [2] = target: Neu5Ac(a2-6)GlcNAc(b1-4)GlcNAc(b1-4)GlcNAc
# Outline: as §1
# [3] = target: Neu5Ac(a2-8)Neu5Ac
# Outline: as §1
# [4] = target: Neu5Ac(a2-8)Neu5Ac(a2-3)Gal(b1-3)GalNAc(b1-4)[Neu5Ac(a2-3)]Gal(b1-4)Glc
# Outline: as §1
# [5] = target: Neu5Ac(a2-8)Neu5Ac(a2-3)Gal(b1-3)GalNAc(b1-4)[Neu5Ac(a2-8)Neu5Ac(a2-3)]Gal(b1-4)Glc
# Outline: as §1
# [6] = target: Neu5Ac(a2-8)Neu5Ac(a2-3)Gal(b1-4)Glc
# Outline: as §1
# [7] = target: Neu5Ac(a2-8)Neu5Ac(a2-3)Gal(b1-4)GlcNAc
# Outline: as §1
# [8] = target: Neu5Ac(a2-8)Neu5Ac(a2-3)[Gal(b1-3)GalNAc(b1-4)]Gal(b1-4)Glc
# Outline: as §1
# [9] = target: Neu5Ac(a2-8)Neu5Ac(a2-3)[GalNAc(b1-4)]Gal(b1-4)Glc
# Outline: as §1
# [10] = target: Neu5Ac(a2-8)Neu5Ac(a2-8)Neu5Ac
# Outline: as §1
# [11] = target: Neu5Ac(a2-8)Neu5Ac(a2-8)Neu5Ac(a2-3)Gal(b1-4)Glc
# Outline: as §1
# [12] = target: Neu5Ac(a2-8)Neu5Ac(a2-8)Neu5Ac(a2-3)[Gal(b1-3)GalNAc(b1-4)]Gal(b1-4)Glc
# Outline: as §1
# [13] = target: Neu5Ac(a2-8)Neu5Ac(a2-8)Neu5Ac(a2-3)[GalNAc(b1-4)]Gal(b1-4)Glc
# Outline: as §1
# [14] = target: Neu5Ac(a2-8)Neu5Ac(a2-8)Neu5Ac(a2-8)Neu5Ac(a2-3)[GalNAc(b1-4)]Gal(b1-4)Glc
# Outline: as §1
# [15] = target: Neu5Ac(a2-8)Neu5Gc(a2-3)Gal(b1-4)GlcNAc
# Outline: as §1
# [16] = target: Neu5Ac(b2-6)Gal(b1-4)GlcNAc
# Outline: as §1
# [17] = target: Neu5Ac(b2-6)GalNAc
# Outline: as §1
# [18] = target: Neu5Ac9Ac(a2-3)Gal(b1-3)GlcNAc
# Outline: as §1
# [19] = target: Neu5Ac9Ac(a2-3)Gal(b1-4)GlcNAc
# Outline: as §1
# [20] = target: Neu5Ac9Ac(a2-6)Gal(b1-4)GlcNAc
# Outline: as §1
# [21] = target: Neu5Gc(a2-3)Gal(b1-3)GlcNAc
# Outline: as §1
# [22] = target: Neu5Gc(a2-3)Gal(b1-3)[Fuc(a1-4)]GlcNAc
# Outline: as §1
# [23] = target: Neu5Gc(a2-3)Gal(b1-4)Glc
# Outline: as §1
# [24] = target: Neu5Gc(a2-3)Gal(b1-4)GlcNAc
# Outline: as §1
# [25] = target: Neu5Gc(a2-3)Gal(b1-4)GlcNAc(b1-3)Gal(b1-4)GlcNAc(b1-2)Man(a1-3)[Neu5Gc(a2-3)Gal(b1-4)GlcNAc(b1-3)Gal(b1-4)GlcNAc(b1-2)Man(a1-6)]Man(b1-4)GlcNAc(b1-4)GlcNAc
# Outline: as §1
# [26] = target: Neu5Gc(a2-3)Gal(b1-4)[Fuc(a1-3)]GlcNAc
# Outline: as §1
# [27] = target: Neu5Gc(a2-3)Gal(b1-4)[Fuc(a1-4)]GlcNAc
# Outline: as §1
# [28] = target: Neu5Gc(a2-6)Gal(b1-4)GlcNAc
# Outline: as §1
# [29] = target: Neu5Gc(a2-6)GalNAc
# Outline: as §1
# [30] = target: Neu5Gc(a2-8)Neu5Ac(a2-3)Gal(b1-4)GlcNAc
# Outline: as §1
# [31] = target: Neu5Gc(a2-8)Neu5Gc(a2-3)Gal(b1-4)GlcNAc
# Outline: as §1
# [32] = target: Neu5Gc(a2-8)Neu5Gc(a2-3)Gal(b1-4)GlcNAc(b1-3)Gal(b1-4)GlcNAc
# Outline: as §1
# [33] = target: Neu5Gc(a2-8)Neu5Gc(a2-6)Gal(b1-4)GlcNAc
# Outline: as §1
# [34] = target: Neu5Gc(b2-6)Gal(b1-4)GlcNAc
# Outline: as §1
binder,measurement,setting,value
"AAA (Anguilla anguilla), Q7SIC1 (protein) VIPEGYTQENVAVRGKATQSAQLRGEHAANSEASNAIDGNRDSNFYHGSCTHSSGQANPWWRVDLLQVYTITSVTITNRGDCCGERISGAEINIGQHLASNGVNNPECSVIGSMATGETKTFHCPAPMIGRYVVTYLPTSESLHLCEVEVNVDKPAAA",glycan array binding signal (z-score),[1],1.7
same,glycan array binding signal (z-score),[2],2.46
same,glycan array binding signal (z-score),[3],-0.156
same,glycan array binding signal (z-score),[4],-0.282
same,glycan array binding signal (z-score),[5],-0.183
same,glycan array binding signal (z-score),[6],-0.169
same,glycan array binding signal (z-score),[7],-0.228
same,glycan array binding signal (z-score),[8],-0.117
same,glycan array binding signal (z-score),[9],-0.079
same,glycan array binding signal (z-score),[10],-0.346
same,glycan array binding signal (z-score),[11],-0.366
same,glycan array binding signal (z-score),[12],-0.09
same,glycan array binding signal (z-score),[13],0.123
same,glycan array binding signal (z-score),[14],-0.22
same,glycan array binding signal (z-score),[15],-0.177
same,glycan array binding signal (z-score),[16],-0.268
same,glycan array binding signal (z-score),[17],-0.224
same,glycan array binding signal (z-score),[18],-0.34
same,glycan array binding signal (z-score),[19],-0.102
same,glycan array binding signal (z-score),[20],-0.304
same,glycan array binding signal (z-score),[21],-0.228
same,glycan array binding signal (z-score),[22],-0.2
same,glycan array binding signal (z-score),[23],0.061
same,glycan array binding signal (z-score),[24],-0.006
same,glycan array binding signal (z-score),[25],-0.043
same,glycan array binding signal (z-score),[26],-0.157
same,glycan array binding signal (z-score),[27],0.394
same,glycan array binding signal (z-score),[28],0.298
same,glycan array binding signal (z-score),[29],-0.058
same,glycan array binding signal (z-score),[30],-0.29
same,glycan array binding signal (z-score),[31],-0.161
same,glycan array binding signal (z-score),[32],-0.231
same,glycan array binding signal (z-score),[33],-0.197
same,glycan array binding signal (z-score),[34],-0.178
